This note sets out measurements from ChEMBL document CHEMBL5724801, “EUbOPEN Chemogenomics Library - Multiplex” (2024).

Molecules are shown by their SMILES. Certain results were filed several times, with different values. The other results are left out here. The source may hold further records. Results that share an entry are repeated measurements in other runs, samples, wells, individuals or studies.

What all share (type): toxicity, cell-based
The subject of data set [1] is Fibroblast. Description: Multiplex assay against human fibroblast. The method in brief:
(§1)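 Live cells were stained at seeding with Hoechst33342, BioTracker Green Microtubule Cytoskeleton Dye, MitoTracker Red and Annexin V Alexa Fluor 680, then imaged on a CQ1 microscope at 37°C and 5% CO2 after compound addition. CellPathfinder machine-learning gating split cells into Hoechst high-intensity objects or normal cells. Normal cells were split into healthy, pyknosed or fragmented nuclei, and pyknosed cells into mitotic or apoptotic. Tubulin, mitochondrial-mass and membrane-permeability phenotypes are per cents of healthy-nucleus cells.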

In data set [2] the test system is HEK-293T. The experiment in a line: Multiplex assay against HEK293T. Conditions: human. The method in brief:
as §1

Data set [3] relates to U2OS. The experiment in a line: Multiplex assay against U2OS. Particulars: human. A digest of the protocol:
as §1

Where [4] appears, read: 12 h, 1 µM, compound concentration 1 uM.
Where [5] appears, read: 24 h, 1 µM, compound concentration 1 uM.
Setting [6] is: 48 h, 10 µM, compound concentration 10 uM.
[7] abbreviates: 12 h, 10 µM, compound concentration 10 uM.
Setting [8] is: 48 h, 1 µM, compound concentration 1 uM.
[9] abbreviates: 24 h, 10 µM, compound concentration 10 uM.

Consider `COCCNc1cc(NC(=O)N2CCCc3cc(CN4CCOCC4=O)c(C=O)nc32)ncc1C#N`, for which the “Population Apoptotic (%)” value in data set [1] (setting [4]) was 7.69% and 23.68%; in data set [1] (setting [5]), 5% and 21.43%. Moreover, the “Population Mitochondria Different-Phenotype (%)” value in data set [1] (setting [6]) is 20.69% and 4.52%. Further, the “Population Healthy Nuclei (%)” value in data set [2] (setting [4]) is 59.46% and 18%; in data set [2] (setting [7]) it was 51.07% and 15.33%; in data set [2] (setting [5]) it was 71.48% and 19.08%. Besides, the “Population Tubulin-Different-Phenotype (%)” value in data set [2] (setting [4]) is 8.18% and 33.33%; in data set [2] (setting [5]), 17.55% and 3.03%; in data set [2] (setting [8]), 2.87% and 54.03%; in data set [2] (setting [6]) it was 3.64% and 50.4%. Besides, the “Total Cell Count” value in data set [2] (setting [5]) was 526 and 173; in data set [2] (setting [8]), 1304 and 208; in data set [2] (setting [6]), 774 and 233; in data set [3] (setting [6]), 830 and 237. Moreover, the “Population Pyknosed Nuclei (%)” value in data set [2] (setting [8]) is 11.73% and 37.98%.
As for `O=C(Nc1ccccc1Br)N[C@@H]1CCN(c2ccc(C(F)(F)F)cn2)C1` [SB-705498], the “Population Fragmented Nuclei (%)” value in data set [1] (setting [4]) is 26.49% and 5.82%; in data set [1] (setting [5]), 23.81% and 4.5%. In addition, the “Population Healthy Nuclei (%)” value in data set [2] (setting [4]) was 59.88% and 19.75%; in data set [2] (setting [7]), 42.69% and 8.78%; in data set [2] (setting [9]) it was 64.72% and 18.18%. Besides, the “Population Tubulin-Different-Phenotype (%)” value in data set [2] (setting [4]) is 8.37% and 40.62%; in data set [2] (setting [8]), 1.62% and 50.48%; in data set [2] (setting [6]) it was 3.99% and 50%. Also, the “Population Pyknosed Nuclei (%)” value in data set [2] (setting [5]) was 23.17% and 71.93%; in data set [2] (setting [8]) it was 10.9% and 40.78%; in data set [2] (setting [6]), 14.61% and 46.02%. The “Total Cell Count” value was 562 and 171 in data set [2] (setting [5]); 1147 and 179 in data set [2] (setting [8]); 869 and 176 in data set [2] (setting [6]); 579 and 167 in data set [3] (setting [9]); 1026 and 273 in data set [3] (setting [6]). Besides, in data set [2] (setting [6]), the “Population Apoptotic (%)” value is 4.72% and 19.75%. Further, in data set [3] (setting [9]), the “Population Mitochondria Different-Phenotype (%)” value was 0.2% and 16.55%.
`FC(F)(F)c1ccccc1-c1cc(C(F)(F)F)c2[nH]c(C3=NOC4(CCCCC4)C3)nc2c1`: the “Population Apoptotic (%)” value in data set [1] (setting [6]) was 3.57% and 44.83%; in data set [2] (setting [8]) it was 5.48% and 21.43%. For the same compound, the “Population Healthy Nuclei (%)” value in data set [2] (setting [4]) was 53.7% and 12.75%; in data set [2] (setting [7]), 45.1% and 9.73%; in data set [2] (setting [5]) it was 79.85% and 25.87%; in data set [2] (setting [9]) it was 53.52% and 7.87%. For the same compound, the “Population Tubulin-Different-Phenotype (%)” value is 6.9% and 26.32% in data set [2] (setting [4]); 2.33% and 41.98% in data set [2] (setting [8]); 19.58% and 79.49% in data set [2] (setting [6]). Besides, the “Population Pyknosed Nuclei (%)” value in data set [2] (setting [5]) was 18.67% and 72.03%; in data set [2] (setting [8]) it was 12.16% and 45.75%. Moreover, the “Total Cell Count” value was 541 and 143 in data set [2] (setting [5]); 1201 and 153 in data set [2] (setting [8]); 511 and 116 in data set [2] (setting [6]). The “Population Mitochondria Different-Phenotype (%)” value was 4.38% and 34.65% in data set [3] (setting [7]); 1.66% and 38.13% in data set [3] (setting [9]); 1.2% and 26.29% in data set [3] (setting [6]). For the same compound, the “Population Membrane Permeable-Phenotype (%)” value in data set [3] (setting [9]) was 7.62% and 25.18%; in data set [3] (setting [6]), 6.79% and 21.71%.
`CC(C)CC(=O)Nc1cncc(-c2ccc3[nH]nc(-c4nc5c(-c6cccc(F)c6)cncc5[nH]4)c3c2)c1` [LORECIVIVINT]: the “Population Apoptotic (%)” value in data set [1] (setting [4]) is 4.55% and 37.04%. The “Population Healthy Nuclei (%)” value in data set [2] (setting [4]) is 29.19% and 6.48%; in data set [2] (setting [5]), 33.97% and 7.48%; in data set [2] (setting [8]) it was 34.76% and 8.94%. In addition, the “Population Tubulin-Different-Phenotype (%)” value was 32.26% and 6.45% in data set [2] (setting [7]); 19.46% and 3.53% in data set [3] (setting [6]). The “Population Mitochondria Different-Phenotype (%)” value in data set [2] (setting [9]) is 24.39% and 5%; in data set [3] (setting [4]), 0.33% and 11.4%; in data set [3] (setting [5]), 0.32% and 16.96%. In addition, the “Population Membrane Permeable-Phenotype (%)” value in data set [2] (setting [8]) is 5.26% and 27.27%.
For `Clc1ccccc1C(c1ccccc1)(c1ccccc1)n1cccn1`, the “Population Fragmented Nuclei (%)” value in data set [1] (setting [4]) was 15.66% and 5.17%; in data set [1] (setting [9]) it was 12.39% and 2.27%. Further, the “Population Tubulin-Different-Phenotype (%)” value in data set [1] (setting [4]) was 7.14% and 22.86%; in data set [1] (setting [8]) it was 3.12% and 17.54%; in data set [2] (setting [4]) it was 2.96% and 25%; in data set [2] (setting [7]), 9.43% and 50%; in data set [2] (setting [9]), 32.13% and 6.67%; in data set [2] (setting [8]), 1.47% and 27.61%. Moreover, the “Population Tubulin-Different-Phenotype (%)” value in data set [2] (setting [6]) is 2.4% and 48.94%. In data set [1] (setting [5]), the “Population Apoptotic (%)” value was 3.57% and 40%. Moreover, the “Population Pyknosed Nuclei (%)” value was 16.87% and 5.46% in data set [1] (setting [5]); 20.38% and 68.24% in data set [2] (setting [5]); 4.84% and 17.7% in data set [3] (setting [4]). Further, the “Population Healthy Nuclei (%)” value in data set [2] (setting [4]) is 60.42% and 15.75%; in data set [2] (setting [7]), 53% and 17.24%; in data set [2] (setting [5]) it was 78.65% and 25.68%. The “Total Cell Count” value in data set [2] (setting [5]) is 521 and 148; in data set [2] (setting [8]), 1314 and 230; in data set [2] (setting [6]), 1016 and 267; in data set [3] (setting [4]), 351 and 113; in data set [3] (setting [7]) it was 366 and 104; in data set [3] (setting [5]), 475 and 144. Also, the “Total Cell Count” value in data set [3] (setting [9]) was 480 and 126; in data set [3] (setting [8]), 893 and 220; in data set [3] (setting [6]) it was 756 and 166. Also, the “Population Mitochondria Different-Phenotype (%)” value in data set [3] (setting [7]) was 0.65% and 14.86%; in data set [3] (setting [9]), 0.5% and 12.9%.
Consider `CCn1cnc2c(-c3ccc(F)c(-c4ccc(S(=O)(=O)CC)cc4OC)c3)cnnc21` [DARIGABAT], for which the “Population Fragmented Nuclei (%)” value was 14.94% and 0.96% in data set [1] (setting [7]); 19.77% and 5.41% in data set [1] (setting [9]); 17.74% and 5.43% in data set [1] (setting [6]). Also, the “Population Tubulin-Different-Phenotype (%)” value was 5.48% and 19.05% in data set [1] (setting [8]); 63.1% and 13.33% in data set [2] (setting [9]); 3.72% and 43.55% in data set [2] (setting [8]); 21.08% and 78.95% in data set [2] (setting [6]); 14.62% and 2.75% in data set [3] (setting [7]). For the same compound, the “Population Healthy Nuclei (%)” value is 30.7% and 9.7% in data set [2] (setting [7]); 61.23% and 14.29% in data set [2] (setting [5]); 36.52% and 10.95% in data set [2] (setting [9]); 63.14% and 14.73% in data set [2] (setting [6]). In addition, the “Total Cell Count” value in data set [2] (setting [5]) is 455 and 114; in data set [2] (setting [8]), 732 and 146. In addition, the “Population Mitochondria Different-Phenotype (%)” value was 1.19% and 35.78% in data set [3] (setting [7]); 0.76% and 28.07% in data set [3] (setting [9]); 3.63% and 37.5% in data set [3] (setting [6]).
On to `O=C(Nc1cc(C(F)(F)F)cc(C(F)(F)F)c1)c1cc(Cl)ccc1O` [IMD-0354], for which the “Population Tubulin-Different-Phenotype (%)” value in data set [1] (setting [7]) was 4.46% and 16.67%; in data set [1] (setting [9]), 11.46% and 40%; in data set [2] (setting [4]), 3.38% and 37.04%; in data set [2] (setting [8]), 1.78% and 19.27%; in data set [2] (setting [6]) it was 7.32% and 29.41%. Besides, the “Population Membrane Permeable-Phenotype (%)” value in data set [1] (setting [9]) is 5.21% and 18.82%. Moreover, the “Population Mitochondria Different-Phenotype (%)” value is 42.57% and 7.41% in data set [2] (setting [4]); 63.64% and 0% in data set [2] (setting [7]). In data set [2] (setting [9]), the “Population Healthy Nuclei (%)” value is 15.62% and 3.53%. In addition, the “Total Cell Count” value in data set [2] (setting [8]) was 718 and 203. Also, the “Population Fragmented Nuclei (%)” value in data set [3] (setting [6]) is 3.05% and 18.35%.
As for `O=C1[C@H](Cc2ccc(O)cc2)N2C(=O)CCN(C(=O)NCc3ccccc3)[C@H]2CN1Cc1cccc2ccccc12`, in data set [1] (setting [9]), the “Population Membrane Permeable-Phenotype (%)” value was 1% and 13%. In data set [3] (setting [8]), the “Population Mitotic Cells (%)” value is 18% and 4%.
For `N#Cc1c(N)nc(SCc2csc(-c3ccc(Cl)cc3)n2)c(C#N)c1-c1ccc(OCCO)cc1` [CAPADENOSON], the “Population Fragmented Nuclei (%)” value was 8% and 30% in data set [1] (setting [4]); 11% and 35% in data set [1] (setting [5]). The “Population Mitochondria Different-Phenotype (%)” value in data set [1] (setting [5]) was 5% and 20%. The “Population Mitotic Cells (%)” value in data set [1] (setting [6]) was 18% and 63%; in data set [3] (setting [5]), 12% and 38%.
On to `CC(=O)NCCc1c(Cc2ccccc2)[nH]c2ccccc12` [LUZINDOLE], for which the “Population Membrane Permeable-Phenotype (%)” value in data set [1] (setting [7]) is 2% and 13%. The “Population Tubulin-Different-Phenotype (%)” value in data set [1] (setting [5]) is 13% and 50%. For the same compound, the “Population Mitotic Cells (%)” value in data set [3] (setting [4]) is 27% and 0%.
